Laboratory results reported in PubChem BioAssay AID488969 (Vanderbilt High Throughput Screening Facility, 2010).
Over roughly 110,000 compounds, “z-score” has its median near -0.1; the highest 2% begin near 2. The list shows a part of the results.

Biological target: Metabotropic glutamate receptor 8 (Rattus norvegicus) (UniProt P70579)
Test: mGluR8 Gi/Go-coupled signaling modulation – cell-based, rat, thallium flux, HTS, primary screen (AID 488969)
Settings: HEK293 rat mGluR8, GIRK (G protein-gated inwardly rectifying potassium channel) thallium flux, FluoZin2; at 10 µM; stronger effect = higher value; submaximal glutamate (EC20) added with thallium

Sequence of UniProt P70579 (P70579 whole entry, looked up): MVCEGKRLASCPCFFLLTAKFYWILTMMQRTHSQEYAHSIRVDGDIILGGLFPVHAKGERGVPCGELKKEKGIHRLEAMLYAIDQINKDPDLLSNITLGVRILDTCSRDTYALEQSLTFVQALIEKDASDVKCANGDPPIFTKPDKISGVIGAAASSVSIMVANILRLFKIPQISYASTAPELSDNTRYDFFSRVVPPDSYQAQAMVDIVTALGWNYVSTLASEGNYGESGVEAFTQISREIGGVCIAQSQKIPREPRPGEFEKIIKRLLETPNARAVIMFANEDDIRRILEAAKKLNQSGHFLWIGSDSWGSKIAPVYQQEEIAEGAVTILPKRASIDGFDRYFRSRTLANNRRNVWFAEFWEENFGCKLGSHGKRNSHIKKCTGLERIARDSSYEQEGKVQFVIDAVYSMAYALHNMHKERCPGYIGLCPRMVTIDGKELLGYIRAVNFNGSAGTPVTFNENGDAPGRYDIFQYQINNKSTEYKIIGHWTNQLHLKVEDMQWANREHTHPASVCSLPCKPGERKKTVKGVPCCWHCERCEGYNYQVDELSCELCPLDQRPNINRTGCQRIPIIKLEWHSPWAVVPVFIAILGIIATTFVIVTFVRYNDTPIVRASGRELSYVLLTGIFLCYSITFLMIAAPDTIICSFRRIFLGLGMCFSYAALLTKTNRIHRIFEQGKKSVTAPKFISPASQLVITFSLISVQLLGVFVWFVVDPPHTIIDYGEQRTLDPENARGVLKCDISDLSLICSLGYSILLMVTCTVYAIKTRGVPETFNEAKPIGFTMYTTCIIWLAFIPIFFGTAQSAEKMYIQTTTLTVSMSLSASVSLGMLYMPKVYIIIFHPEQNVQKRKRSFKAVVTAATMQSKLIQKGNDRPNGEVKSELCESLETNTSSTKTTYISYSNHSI

Row | SMILES | z-score
1 | COc1ccc(CCNC(=O)c2sc3ccccc3c2Cl)cc1OC | -0.565
2 | CCC(C)(C)C1CCc2c(sc(NC(=O)c3cccs3)c2C(N)=O)C1 (configuration not stated) | 0.11
3 | Cc1ccc(NC(=O)Nc2nnc(Cc3ccc([N+](=O)[O-])cc3)s2)cc1C | 0.424
4 | Clc1ccc(C2=Nn3c(nnc3-c3cccs3)SC2)cc1 | -0.153
5 | COc1ccc(C(=O)NCCn2ccc3ccccc32)c(OC)c1 | -1.56
6 | Cc1ccc(C(=O)NNC(=O)CCN2C(=O)C3CCCCC3C2=O)cc1 (configuration not stated) | -0.342
7 | COc1ccc(NC(=O)COC(=O)CC2CC3CCC2C3)c([N+](=O)[O-])c1 (configuration not stated) | -0.182
8 | COc1ccc(C)c(Cn2c(-c3nonc3N)nc3ccccc32)c1 | -0.276
9 | Cc1cc(C)c2c(N)c(S(=O)(=O)Cc3ccccc3)sc2n1 | -0.398
10 | CC(C)(C)c1cc(C(=O)Nc2cccc3ccccc23)ccn1 | -0.369
11 | CSCC[C@H](NC(=O)CC(C)(C)C)c1nc2ccccc2[nH]1 | -0.333
12 | CCCC(=O)Nc1ccccc1NC(=O)C1CCCCC1 | 0.215
13 | CCOC(=O)c1oc2ccccc2c1CSc1nnnn1-c1ccccc1 | -0.727
14 | CCOC(=O)N1CCN(c2ccc(C(F)(F)F)cn2)CC1 | -0.144
15 | C/C(=N\NC(=O)CSc1nnc(C)s1)c1ccc(O)cc1 | 0.00192
16 | O=S(=O)(/N=C(/Nc1ccccn1)c1ccccc1)c1ccccc1 | -0.0611
17 | CC(C)CC(=O)Nc1ccc2oc(-c3cccnc3)nc2c1 | -0.257
18 | O=C(N1CCN(c2ccccc2F)CC1)C1(c2cccs2)CCOCC1 | -0.232
19 | COc1ccc(N(C(=O)c2ccc(F)cc2)C2=CC3CCC(C2)N3C)cc1 (configuration not stated) | 0.526

Row | SMILES | z-score
20 | CCOC(=O)CSC1=C(C#N)C(c2ccc(C)cc2)C2=C(CCCC2=O)N1 (configuration not stated) | -0.561
21 | Cc1ccccc1Cn1cnc2c(nnn2Cc2ccc(F)cc2)c1=O | 1.14
22 | Nc1nc(SCc2nc(-c3ccccc3)no2)[nH]c(=O)c1-c1ccccc1 | -0.0707
23 | Cc1ccc(/C=C/C(=O)NCc2cccs2)cc1 | -0.0205
24 | O=C1Cc2ccccc2Sc2cc(OCCCN3CCCCC3)ccc21 | 1.12
25 | Cc1ccc(NC(C#N)c2ccccc2OCc2ccccc2)cc1 (configuration not stated) | -0.136
26 | COc1ccccc1NC(=S)N1CCC(c2nc3cc(C)c(C)cc3[nH]2)CC1 | -0.359
27 | O=C1c2ccccc2C(=O)N1CCCC(=O)N1CCc2ccccc21 | -0.331
28 | CCC(CC)C(=O)Oc1c(Sc2ccccc2[N+](=O)[O-])c(C)nn1C(C)(C)C | -0.136
29 | CS(=O)(=O)NCCCNc1ccc(Cl)cc1[N+](=O)[O-] | -0.243
30 | CCN1CCN(c2ccc(NC(=O)Cc3ccccc3)cc2)CC1 | 0.253
31 | N/C(=N\OC(=O)c1ccccc1Cl)c1cccnc1 | 0.269
32 | Cc1noc(C)c1COc1cccc(C(=O)OCC(=O)N2CC(=O)Nc3ccccc32)c1 | -0.576
33 | CCCN(CC(=O)Nc1ccc(Cl)cc1Cl)C(=O)/C=C/c1cccc([N+](=O)[O-])c1 | 0.198
34 | CCCn1c(N)c(Sc2ccc(Cl)cc2)c(=O)n(CCC)c1=O | 1.12
35 | CCCCCn1c(=O)[nH]c2cc(C(=O)N3CCN(CC)CC3)ccc2c1=O | 0.0715
36 | COC(=O)/C(=C/c1ccco1)NC(=O)c1ccccc1 | -0.194
37 | O=C(CSc1nc2ccccc2s1)Nc1cc(S(=O)(=O)N2CCOCC2)ccc1Cl | -0.715
38 | CCN1CCCC1CNCc1cccc(OC)c1OCc1ccccc1F (configuration not stated) | -0.177

Row | SMILES | z-score
39 | COc1ccc(N=c2oc3c(OC)cccc3cc2C(=O)NCc2ccco2)c(OC)c1 | -1.34
40 | O=C(NCCCN1CCC(Cc2ccccc2)CC1)C1CCN(S(=O)(=O)N2CCOCC2)CC1 | 0.369
41 | CC(C)CCNC(=O)NC(=O)COc1ccccc1C#N | -0.198
42 | Cc1ccc(S(=O)(=O)N(C)CCCC(=O)NCc2ccc3c(c2)OCO3)cc1 | -0.289
43 | CC1=CC2=NC(=O)/C(=C\c3cc(C)n(-c4ccccc4F)c3C)C(=N)N2O1 | 0.13
44 | Cc1nn2c(-c3ccc(Cl)cc3)ccnc2c1-c1ccccc1 | -0.0976
45 | CCc1ccc(/C=C\C(=O)N2CCc3ccccc3C2)cc1 | -0.105
46 | Cn1nnnc1SCC(=O)NCc1ccccc1 | 0.57
47 | Cc1ccccc1C(=O)Nc1ccc(Br)c(C)n1 | -0.245
48 | COc1ccccc1CNC(=O)c1cn(C)c(=O)c2cc(OC)c(OC)cc12 | 0.415
49 | Cc1ccc(C(=O)N/C(=C/C=C\c2ccccc2)C(=O)NCc2ccco2)cc1 | -0.216
50 | Oc1oc(-c2ccccc2)nc1C=Nc1cccc2ccccc12 | -0.00127
51 | CCCCCn1c(=O)[nH]c2cc(C(=O)NCCN(CC)CC)ccc2c1=O | 0.754
52 | COc1ccc(SCc2noc(C(=O)NC(C)C)c2C(=O)O)cc1 | -0.0789
53 | CCOC(=O)C1CCN(C(=O)CCc2ccccc2)CC1 | 0.606
54 | COC(=O)c1ccc(C2CC(=O)Nc3cc(OC)c(OC)c(OC)c32)cc1 (configuration not stated) | 0.259
55 | C=CCn1c(-c2cccs2)nc2nc3ccccc3nc21 | -0.179
56 | CN1/C(=C\C(=O)C(F)F)C(C)(C)c2ccccc21 | -0.183
57 | CC(=O)N1CCc2cc(Br)cc(S(=O)(=O)N3CCN(c4ccccn4)CC3)c21 | 0.487
